The text below walks through data of paper PMC4336329 (PLoS ONE, 2015).

The whole screen tested about 310,000 compounds, of which about 14,000 (4.5%) showed an effect of 50% or more. Effects have a minus sign here. Some of the results follow.
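Note: peak tail current of the secondary pulse compared with the same well before compound.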

The target of the test is human ether-à-go-go-related gene (hERG) potassium channel (human, UniProt Q12809). The test is described as follows: primary screen, population patch clamp on CHO cells stably expressing hERG.
human ether-à-go-go-related gene (hERG) potassium channel, sequence (Q12809 whole entry, looked up): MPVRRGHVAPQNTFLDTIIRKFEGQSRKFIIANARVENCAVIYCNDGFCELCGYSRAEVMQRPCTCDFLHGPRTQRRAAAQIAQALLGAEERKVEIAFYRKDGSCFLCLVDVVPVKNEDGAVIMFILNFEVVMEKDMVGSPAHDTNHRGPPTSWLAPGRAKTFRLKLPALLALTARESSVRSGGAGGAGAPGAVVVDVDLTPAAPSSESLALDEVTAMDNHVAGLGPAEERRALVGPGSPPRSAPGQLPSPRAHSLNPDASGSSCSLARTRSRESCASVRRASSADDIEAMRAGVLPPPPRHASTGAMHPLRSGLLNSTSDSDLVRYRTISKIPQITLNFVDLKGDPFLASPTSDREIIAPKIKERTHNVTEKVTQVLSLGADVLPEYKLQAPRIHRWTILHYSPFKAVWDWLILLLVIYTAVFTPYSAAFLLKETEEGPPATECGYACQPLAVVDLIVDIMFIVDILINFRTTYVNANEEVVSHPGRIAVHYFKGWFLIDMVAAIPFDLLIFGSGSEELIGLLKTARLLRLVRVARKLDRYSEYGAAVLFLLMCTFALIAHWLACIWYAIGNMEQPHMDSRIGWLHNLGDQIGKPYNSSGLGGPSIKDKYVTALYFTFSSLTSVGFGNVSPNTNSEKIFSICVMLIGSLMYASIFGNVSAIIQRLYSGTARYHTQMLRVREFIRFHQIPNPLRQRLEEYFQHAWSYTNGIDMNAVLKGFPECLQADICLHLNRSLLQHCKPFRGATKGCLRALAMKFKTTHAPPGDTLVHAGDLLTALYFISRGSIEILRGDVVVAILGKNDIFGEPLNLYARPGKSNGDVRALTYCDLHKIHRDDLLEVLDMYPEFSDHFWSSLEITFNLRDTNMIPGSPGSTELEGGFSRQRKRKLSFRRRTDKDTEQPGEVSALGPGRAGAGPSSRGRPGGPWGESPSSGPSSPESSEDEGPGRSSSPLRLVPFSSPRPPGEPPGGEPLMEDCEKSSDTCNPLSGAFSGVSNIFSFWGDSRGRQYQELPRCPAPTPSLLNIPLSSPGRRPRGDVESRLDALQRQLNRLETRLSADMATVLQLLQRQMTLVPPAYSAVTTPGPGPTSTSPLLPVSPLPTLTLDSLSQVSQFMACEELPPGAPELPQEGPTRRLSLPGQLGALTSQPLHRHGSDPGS
As to `O=c1c2ccccc2nc2c3ccccc3ncn12`, the “hERG current change (%, negative = inhibition) at 10uM” value was 6.37%.
For `CC(C)CC(=O)Nc1ccc(S(=O)(=O)N2CCCC2)cc1` the value was 17.1%.
As for `O=C(N/N=C/c1ccc(O)cc1)NC12CC3CC(CC(C3)C1)C2`, the “hERG current change (%, negative = inhibition) at 10uM” value is on record as -55.7%.
`O=C1NC2c3ccccc3C(=O)N2c2c1cnn2-c1ccccc1` (centres unmarked): the “hERG current change (%, negative = inhibition) at 10uM” value was -12.7%.
For the molecule `O=C(CCN1C(=O)/C(=C\c2cccs2)SC1=S)Nc1ccccn1`, the “hERG current change (%, negative = inhibition) at 10uM” value is 8.73%.
The result for `O=S(=O)(c1ccccc1)c1cnc2ccccc2c1` reads 6.72%.
For `O=C(COc1ccc(Cl)c(Cl)c1)NC1CCS(=O)(=O)C1` (centres unmarked) the value was 2.02%; for `COC(=O)C1(C)NC(c2ccco2)C2C(=O)N(c3ccc(F)cc3)C(=O)C21` (centres unmarked), 30.3%; for `COc1ccc(N=C(C)c2c(O)[nH]c(=O)[nH]c2=O)cc1`, 21.6%.
For `O=C(CCl)Nc1cccc(S(=O)(=O)NC2=NCCC2)c1` the value was -0.632%; for `O=C(NCc1ccc(F)cc1Cl)C1CC(=O)N(C2CCCCCCC2)C1` (centres unmarked), 14.6%; for `Oc1ccc2ccccc2c1CN1CCOCC1`, -6.06%.
Take `CCc1ccc(NC(=O)CCn2c(=O)c3cccn3c3ccccc32)cc1`: the “hERG current change (%, negative = inhibition) at 10uM” value is on record as -8.24%.
Take `COc1ccccc1CN1CC(C(=O)NCC2CCCO2)CC1=O` (centres unmarked): the “hERG current change (%, negative = inhibition) at 10uM” value was -4.32%.
For `Cc1ccc(C(O)P(=O)(OCc2ccccc2)c2ccc(N(C)C)cc2)cc1` (centres unmarked) the value was 13.6%; for `COC(=O)C1C2C=CC3(CN(C(C)c4ccc(OC)cc4)C(=O)C13)O2` (centres unmarked), 2.48%.
`COc1cccc(-c2cc(C(=O)N3CCOCC3)no2)c1`: the “hERG current change (%, negative = inhibition) at 10uM” value stood at 18.1%.
The result for `COc1ccc(CNc2nc(NCc3ccc(OC)cc3)n(C(=O)c3ccncc3)n2)cc1` reads 3.83%.
With `O=C(CN1C(=O)NC2(CCCC2)C1=O)Nc1cc(S(=O)(=O)N2CCOCC2)ccc1OCC(F)(F)F`, the “hERG current change (%, negative = inhibition) at 10uM” value was 6.58%.
Consider `CN(C(=O)c1cn2ccccc2n1)c1c(N)n(Cc2ccccc2)c(=O)[nH]c1=O`, for which the “hERG current change (%, negative = inhibition) at 10uM” value is 15.6%.
Turning to `Cc1ccc2cc(CCNS(=O)(=O)c3ccc(F)cc3)c(=O)[nH]c2c1`, the “hERG current change (%, negative = inhibition) at 10uM” value is recorded as -14.6%.
The result for `CC(=O)Nc1ccc(NC(=O)c2cc(=O)c3cc(C)c(C)cc3o2)cc1` reads 24.6%; that for `CCOc1ccc(CN(C)C(=O)CN2C(=O)NC3(CCCc4ccccc43)C2=O)cc1` (centres unmarked), -28%; that for `CN(CC(=O)Nc1ccc(Cl)c(Cl)c1)C1CCCCC1.O=C(O)C(=O)O`, -7.28%.
The result for `C(=N\N=C\c1cccs1)/c1cccs1` reads -2.57%; that for `CN(CCOC(=O)CN1C(=O)c2ccccc2C1=O)C1=NS(=O)(=O)c2ccccc21`, 7.28%.
On to `CC(C)C1CCC(C(=O)N[C@H](Cc2ccccc2)C(=O)O)CC1` (some centres unmarked), for which the “hERG current change (%, negative = inhibition) at 10uM” value is reported as -12.6%.
With `CCCS(=O)(=O)c1nc(S(=O)(=O)c2ccc(C)cc2)c(NCc2ccco2)s1`, the “hERG current change (%, negative = inhibition) at 10uM” value was -25.6%.
For the molecule `Cc1ccc(-c2nc(CS(=O)(=O)CC(=O)N3CCN(C)CC3)c(C)o2)cc1`, the “hERG current change (%, negative = inhibition) at 10uM” value is recorded as -6.81%.
For `C[C@H]1[C@H](NC(=O)C(=NOC(C)(C)C(=O)O)c2csc(N)n2)C(=O)N1S(=O)(=O)O` the value was 15.4%; for `Cc1ccc(OCCN2CCN(C(=O)CCC(=O)Nc3nnc(C)s3)CC2)cc1`, -7.69%; for `CSc1cccc(NC(=O)C2CCCN(c3ncnc4c3nc3n4CCCCC3)C2)c1` (centres unmarked), -47.9%.
The result for `CC(NC(=O)c1ccccc1)c1nnc(SCC(=O)NC2CCCC2)n1C` (centres unmarked) reads 13.4%; that for `Cc1ccc(NC(=O)CNc2cccc(S(=O)(=O)N3CCCCC3)c2)cc1F`, -9.76%.
The result for `CC(CC(=O)N1CCN(c2ccccc2)CC1)c1ccccc1` (centres unmarked) reads 1.87%; that for `CCOC(=O)n1c(=O)oc2cc(S(=O)(=O)N3CCOCC3)ccc21`, -23.4%.
Consider `Cc1nc(NC(=O)/C=C/c2ccccc2)sc1C(=O)NCCO`, for which the “hERG current change (%, negative = inhibition) at 10uM” value was 26.4%.
For the molecule `Cc1ccc(S(=O)(=O)N2CCCC2C(=O)NCc2ccco2)cc1` (centres unmarked), the “hERG current change (%, negative = inhibition) at 10uM” value came out at 4.02%.
For `Cc1cccc(C)c1OCC(=O)NNC(=O)Nc1ccc(Cl)cc1`, the “hERG current change (%, negative = inhibition) at 10uM” value was -2.48%.
The result for `COc1cccc(-c2c(C#N)c(N)nc3c2c(C)nn3-c2ccccc2)c1O` reads -28.1%.
As to `CNC(=S)NNC(=O)c1cccc(N(C)C)c1`, the “hERG current change (%, negative = inhibition) at 10uM” value stood at 24.1%.
The result for `COc1ccc(Cl)cc1NC(=O)C(C)Sc1nncn1C` (centres unmarked) reads 0.256%.
As for `Cn1cc(CCC(=O)NCCCc2ccccc2)c2ccccc21`, the “hERG current change (%, negative = inhibition) at 10uM” value is given as -5.31%.
With `CC(NC(=O)c1ccc(CS(C)(=O)=O)cc1)C1CC2CCC1C2` (centres unmarked), the “hERG current change (%, negative = inhibition) at 10uM” value stood at 3.24%.
The result for `CC(C)NC(=O)c1cc2n(n1)C(C(F)(F)F)CC(c1ccco1)N2` (centres unmarked) reads 1.18%; that for `CSc1ccc(S(=O)(=O)NCC(=O)OCC(=O)N(C)CC(=O)Nc2ccccc2Cl)cc1[N+](=O)[O-]`, -10.4%.
For `CCOC(=O)C1CCN(C(=O)N(C)C)CC1` the value was 17.2%; for `CCC(=O)OCCNc1nc(-c2ccccc2)nc2ccccc12.Cl`, 3.33%; for `COc1cccc(S(=O)(=O)Nc2cccc(C(=O)N3CCCC3)c2)c1`, 1.18%.
For `COc1cccc(NC(=O)CSc2c3c(nc4ccccc24)CCCC3)c1`, the “hERG current change (%, negative = inhibition) at 10uM” value was -8.68%.
Consider `O=C(NCCN1CCOCC1)/C(=C\c1ccccc1F)NC(=O)c1ccccc1`, for which the “hERG current change (%, negative = inhibition) at 10uM” value is -26.5%.
Turning to `O=C(N[C@@H](Cc1ccc(O)cc1)C(=O)O)C(c1ccccc1)c1ccccc1`, the “hERG current change (%, negative = inhibition) at 10uM” value is reported as 9.42%.
For `O=C(Nc1nccs1)C1CCCN(S(=O)(=O)c2cccc3cccnc23)C1` (centres unmarked), the “hERG current change (%, negative = inhibition) at 10uM” value is reported as -3.72%.
The result for `CC(C)C(c1nnnn1CCc1ccccc1)N1CCSCC1` (centres unmarked) reads -5.49%.
The result for `COc1cc(OC)nc(Oc2ccccc2C(=O)Oc2ccccc2Cl)n1` reads -5.8%; that for `CC(=O)Nc1sc(C)c(C)c1C(=O)OC1CCOC1=O` (centres unmarked), -9.14%.
The result for `CCCCn1c(=O)[nH]c(=O)c2c1nc(-c1ccccc1OC(F)F)n2C` reads -10.8%.
Consider `CCn1c2ccccc2c2cc(CNCc3ccc(OC)cc3OC)ccc21.O=C(O)C(=O)O`, for which the “hERG current change (%, negative = inhibition) at 10uM” value is -76.2%.
As to `CCOc1cc(C)c(S(=O)(=O)Nc2ccc(Cl)cn2)cc1C`, the “hERG current change (%, negative = inhibition) at 10uM” value came out at 19.8%.
For `CCc1ccc(NS(=O)(=O)c2ccc3oc(=O)ccc3c2)cc1` the value was -1.91%; for `Cc1cc2cc(CN(Cc3ccco3)C(=O)NCc3ccccc3)c(=O)[nH]c2cc1C`, -6.54%; for `Cc1cccc(NC(=O)NNC(=O)CCc2ccccc2)c1`, 5.32%.
`O=C(O)C(=O)O.c1ccc(-c2cc(N3CCOCC3)nc3ccccc23)cc1`: the “hERG current change (%, negative = inhibition) at 10uM” value is recorded as -11.6%.
For `CC(C)(C)n1cnc2cc(NCc3cccs3)ccc21` the value was -28.2%.
The result for `C=CCNC(=S)/N=c1/ccccn1CCC` reads 19.2%; that for `COc1ccccc1C(c1nnnn1CCc1ccccc1)N1CCCCCC1` (centres unmarked), -7.58%; that for `Cc1nc(SCC(=O)Nc2ccc3c(c2)OCCO3)c2oc3ccccc3c2n1`, -9.24%.
The result for `COC(=O)c1ccc2c(c1)NC(=O)C(N(CC(C)C)CC(C)C)S2` (centres unmarked) reads 1.28%; that for `COc1ccc(/C(O)=C/c2nc3ccc(C(=O)NCCc4cccc(C)c4)cc3[nH]c2=O)cc1OC`, -11.2%.
On to `CCOc1cc(N2CCOCC2)c(OCC)cc1NC(=O)CSc1ncn[nH]1`, for which the “hERG current change (%, negative = inhibition) at 10uM” value is recorded as 10.5%.
For `Oc1ccc(-c2cccc(-c3ccc(O)cc3)n2)cc1` the value was 15.5%; for `O=c1cnnc(N/N=C/c2ccc3c(c2)OCO3)[nH]1`, 7.7%.
The result for `COc1ccc(CCn2c(=N)c(C(=O)NCC3CCCO3)cc3c(=O)n4ccccc4nc32)cc1OC` (centres unmarked) reads -75.9%; that for `CC(=O)Nc1cc(-n2cnnn2)ccc1C`, 22.7%.
For `COC(=O)c1sc(NC(=S)NC(=O)c2ccccc2C)nc1C` the value was 17.6%; for `C[C@H](C(=O)O)c1n[nH]c(=O)c2ccccc12`, 11.7%.
Turning to `Cn1c(SCC(=O)N2CCCCCC2)nc2c(c1=O)SCC2`, the “hERG current change (%, negative = inhibition) at 10uM” value was 8.65%.
The result for `CCC(C)(C(=O)NC1CCCC1)N(CC1CCCO1)C(=O)CNC(=O)c1ccccc1` (centres unmarked) reads 0.197%; that for `COc1ccc(C2(C(=O)NCCN3CCOCC3)CCOCC2)cc1`, 1.89%; that for `Oc1ccc(/C=N/Nc2cc(N3CCOCC3)nc(N3CCOCC3)n2)cc1O`, -12.2%.
The result for `COc1ccc(-c2ccnc3nc(Sc4ncc(C(F)(F)F)cc4Cl)nn23)cc1` reads -19%; that for `Cc1cc(C)nc(SCC(=O)N(C)C)n1`, 12.8%.
For `Cc1ccc(-c2nn(-c3ccccc3Cl)cc2C(=O)NCC2CCCO2)cc1` (centres unmarked) the value was -0.0276%; for `O=C(COc1ccc(Cl)cc1)NN=C1CCCCCCC1`, -9.94%.
For the molecule `O=C(c1ccc(=O)[nH]n1)N1CCN(S(=O)(=O)c2ccc(C(F)(F)F)cc2)CC1`, the “hERG current change (%, negative = inhibition) at 10uM” value is given as -15.5%.
For the molecule `CCOc1ccc(S(=O)(=O)NCCC(=O)N2CCC(Cc3ccccc3)CC2)cc1`, the “hERG current change (%, negative = inhibition) at 10uM” value was -17.9%.
The result for `CC(ON1CC1(C(F)(F)F)C(F)(F)F)(C(N)=O)C(N)=O` (centres unmarked) reads 4.55%.
Take `O=C(NCCC1=CCCCC1)c1ccc(F)c(S(=O)(=O)N2CCOCC2)c1`: the “hERG current change (%, negative = inhibition) at 10uM” value is on record as 7.24%.
The result for `CN(c1ccc(C(=O)Nc2ccc(S(=O)(=O)N3CCCC3)cc2)cc1)S(C)(=O)=O` reads 26.9%.
